Hit rate of the full screen: of about 45,000 compounds, about 200 (0.44%) were called active. Roughly 7% stayed inconclusive and do not appear here. Calls follow the shape of the dose curve; as a rule, active = well fitted activation curve with a large enough effect; inconclusive = small, poorly fitted or top-dose-only effect; inactive = no such curve, though single readings can be large or run the other way. This is one part of the list. Peptide text beside a SMILES is read from it. * marks the point of attachment. Cbz = O=C(OCc1ccccc1)*
Test: qHTS of TDP-43 Inhibitors: NCGC Sytravon Library Screen; also: 0% is about no effect; nearly all actives have a fitted effect of over 55% in size
Conditions: yeast TDP-43 toxicity rescue, BacTiter-Glo growth, 24 h; series mostly up to 46.1 µM; growth rescue (activation): at the top concentration
Summary of the method: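 TDP-43-expressing yeast, pregrown in raffinose, seeded at OD600 0.02 in galactose medium with compound for 24 hr at 30 deg C. Growth read by BacTiter-Glo luminescence, so rescue of toxicity appears as activation.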

Row | SMILES | growth rescue (activation)
1 | O=C(O)/C=C/c1ccc(S(=O)(=O)N2CCCCCC2)cc1 | inactive: 27.6%
2 | O=C(O)CCC(NC(=O)C1CCCN1C(=O)OCc1ccccc1)C(=O)O (stereo not drawn) (Cbz-Pro-Glu-OH; configuration not given here) | inactive: 11.6%
3 | O=C(c1cccc(NS(=O)(=O)c2cccc([N+](=O)[O-])c2)c1)N1CCOCC1 | inactive: 10.5%
4 | CC(C)(C)NC(=O)CSc1nc2ccccc2c(=O)[nH]1 | inactive: 2.38%
5 | COc1ccc(CNS(=O)(=O)NCc2ccc(C)cc2)cc1OC | inactive: 13.2%
6 | O=C(CN1CCN(C(=O)C2CCCO2)CC1)Nc1cc(C(F)(F)F)ccc1Cl (stereo unspecified) | inactive: 20%
7 | Cn1c(CCNS(=O)(=O)c2ccccc2)nnc1SCc1cccnc1 | inactive: -13.6%
8 | CCOC(=O)CN(C)Cc1cn(C)nc1-c1ccc(Oc2ccccc2)cc1 | inactive: 3.51%
9 | CSc1ccc(/C=N/NC(=O)CN2CCN(Cc3ccc(Cl)cc3)CC2)cc1 | inactive: 10.1%
10 | O=C(NCCCO)C(=O)c1c(-c2ccccc2)cc2ccccn12 | inactive: 3.82%
11 | CCOC(=O)N1CCC(N(CCN(C)C)C(=S)Nc2cc(C)ccc2C)CC1 | inactive: 3.73%
12 | Cc1ccc(CN(c2ccc(C(=O)N3CCOCC3)cc2)S(C)(=O)=O)cc1 | inactive: -16.9%
13 | CCc1ccc2oc(C(=O)NCCc3ccc(S(N)(=O)=O)cc3)cc(=O)c2c1 | inactive: 0.144%
14 | CN(C)S(=O)(=O)c1ccc(NC(=O)CSc2nnc(-c3ccco3)n2N)cc1 | inactive: -13.2%
15 | Cc1nc2ccccc2nc1OCc1ccccc1 | inactive: 23.8%
16 | Clc1ccc(-c2nc3c4cnn(-c5ccccc5Br)c4ncn3n2)c(Cl)c1 | inactive: 18.6%
17 | NC(CCc1ccccc1)c1csc(Nc2ccc(C(F)(F)F)cn2)n1 (stereo unspecified) | inactive: 0.31%
18 | CC(C)C(C)NC(=O)CN1C(=O)NC2(CCc3ccccc32)C1=O (stereo unspecified) | inactive: -8.39%
19 | Cc1ccc(C2=Nc3ccccc3N=C(C(Cl)Cl)C2)cc1 | inactive: -8.2%
20 | CCCC(c1nnnn1CS(=O)(=O)c1ccc(C)cc1)N1CCN(CC)CC1 (stereo unspecified) | inactive: -21.9%
21 | COc1ccc(CN2C[C@@H](CO)O[C@@H](n3cnc4c(NC5CC5)ncnc43)C2)cc1 | inactive: 17%
22 | O=C1C2C3C=CC(C4CC34)C2C(=O)N1/N=C/c1cccs1 (stereo unspecified) | inactive: 2.57%

Row | SMILES | growth rescue (activation)
23 | N#Cc1ccc(COC(=O)CSc2nnc(N)s2)cc1 | inactive: 10.2%
24 | CC(CCc1ccccc1)NC(=O)CNc1cccc([N+](=O)[O-])c1 (stereo unspecified) | inactive: 17.6%
25 | N#Cc1c(SCC(=O)Nc2cccc(C(F)(F)F)c2)sc2c(O)cc(=O)[nH]c12 | inactive: 4.23%
26 | COc1ccc(CNC(=O)C2CCC(CNc3c(N4CCOCC4)c(=O)c3=O)CC2)cc1 (stereo unspecified) | inactive: 3.56%
27 | O=C(N/N=C/c1cccnc1)c1ccc(CN2c3cccc4cccc(c34)S2(=O)=O)cc1 | inactive: 1.74%
28 | CC(/C=C\c1cccnc1)=C/C(=O)O | inactive: -3.1%
29 | Cc1cc(C)nc(NC(N)=NCCc2c[nH]c3ccccc23)n1 | inactive: 3.66%
30 | COc1ccc(-c2cc(C(=O)N3CCCC3)no2)cc1 | inactive: -0.244%
31 | O=C(COC(=O)c1cccnc1)Nc1cccc2ccccc12 | inactive: 6.85%
32 | COC(=O)c1ccc(C)c(-n2c(C)cc(C=O)c2C)c1 | inactive: 25.1%
33 | CCOc1ccc(NC(=O)c2ccco2)c([N+](=O)[O-])c1 | inactive: 30.6%
34 | COc1ccccc1N1C(C)=CC(=C(C#N)c2nc3ccccc3s2)C=C1C | inactive: 9.32%
35 | CC(C)c1ccc(NC(=O)C2Cc3c(-c4cccc(C(N)=O)c4)ccnc3O2)cc1 (stereo unspecified) | inactive: 7.22%
36 | CCc1ccc(/C(C)=N/NC(=O)CNC(=O)/C=C/c2ccco2)cc1 | inactive: 26.2%
37 | O=C(Nc1cccc(C(F)(F)F)c1)c1cc(-c2ccco2)on1 | inactive: 2.53%
38 | CC(C)(C)NC(=O)CSc1nncn1NCc1c(Cl)cccc1Cl | inactive: -2.17%
39 | O=C(CNc1cccc([N+](=O)[O-])c1)NCCCc1ccccc1 | inactive: -1.69%
40 | COc1ccccc1N(CC(=O)Nc1cc(S(=O)(=O)N(C)C)ccc1C)S(=O)(=O)c1cccs1 | inactive: 15.2%
41 | O=C(CN1CCN(Cc2ccccc2)CC1)Nc1ccc(S(=O)(=O)N2CCOCC2)cc1 | inactive: -0.58%
42 | COCCCN(C(=S)Nc1cccc(Cl)c1)C(C)c1ccncc1 (stereo unspecified) | inactive: 27.4%
43 | O=C(COC(=O)c1ccc([N+](=O)[O-])s1)NC(=O)NCc1ccccc1 | inactive: 14.6%
44 | C[n+]1cc[nH]c1SCC(=O)c1ccc(Cl)cc1 | inactive: 15.8%

Row | SMILES | growth rescue (activation)
45 | CCN(C(=O)c1cc2cccc(OC)c2oc1=O)C1CCCCC1 | inactive: 28.9%
46 | COc1ccc(C(=O)NNC(=O)C(=O)Nc2cccc3ccccc23)cc1 | inactive: 11.1%
47 | O=C(c1ccc2c(c1)OCO2)N1CCN(c2ncccn2)CC1 | inactive: -4.18%
48 | COc1ccc(N(CC(=O)NCc2ccco2)C(=O)CCC(=O)Nc2nccs2)cc1 | inactive: 5.68%
49 | CC(=O)n1cc(N(C(=O)CCl)c2ccccc2)c2ccccc21 | inactive: 3.9%
50 | Cc1onc(-c2ccccc2Cl)c1C(=O)NC(=S)NCc1cccnc1 | inactive: 5.01%
51 | COc1cccc(/C(O)=C/c2nc3ccc(C(=O)NCCc4ccc(Cl)cc4)cc3[nH]c2=O)c1 | inactive: 17.3%
52 | CCOc1ccc(NS(=O)(=O)c2ccc(NC(=O)c3cccnc3)c(OC)c2)cc1 | inactive: 1.19%
53 | CCOc1ccc(CN2CCN(Cc3ccc4c(c3)c3ccccc3n4CC)CC2)cc1 | inactive: 5.17%
54 | Cn1c(=NC(=O)C2CCCCC2)sc2cc([N+](=O)[O-])ccc21 | inactive: -0.831%
55 | Cc1cccc(NC(=O)CN2CCN(C(=O)c3cnn(Cc4ccccc4)c3)CC2)c1C | inactive: 13.3%
56 | Cc1ccc(C2C(C#N)=C(N)OC3=C2C(=O)CCC3)s1 (stereo unspecified) | inactive: 4.15%
57 | Cc1cc(NC(=O)CC(F)(F)F)n(-c2ccccc2)n1 | inactive: -2.16%
58 | COc1ccc2c(COC(=O)[C@H](C)NS(=O)(=O)c3ccccc3F)cc(=O)oc2c1 | inactive: 5.68%
59 | Cc1cccc(C)c1NC(=O)NC1(C(=O)N2CCN3CCCC3C2)CCCCC1 (stereo unspecified) | inactive: 3.43%
60 | Cc1cc(C)nc(N/N=C/c2c(CO)cnc(C)c2O)n1 | inactive: 15%
61 | COc1ccc(-n2nc(C(=O)NCC(=O)N3CCN(c4ccccc4F)CC3)c3ccccc3c2=O)cc1 | inactive: -9.63%
62 | COc1cc(C(=O)Oc2cccc(/C=N/NC(=O)c3cc(C)[nH]n3)c2)cc(OC)c1OC | inactive: 2.54%
63 | Cc1ccc2cc(COC(=O)c3ccco3)c(=O)[nH]c2c1 | inactive: 5.18%
64 | COc1cccc(/C=N/N2CCOCC2)c1O | inactive: -8.53%
65 | CN(CC(=O)Nc1ccc(F)c(F)c1F)C(=O)/C=C/c1ccc(Cl)cc1 | inactive: 4.06%
66 | Cc1ccc(NC(=O)c2oc3ccc(S(=O)(=O)N4CCOCC4)cc3c2C)c(C)c1 | inactive: -0.0153%

Row | SMILES | growth rescue (activation)
67 | CC(=O)NCCC(=O)N1CCCC(C(=O)c2ccc3c4c(cccc24)CC3)C1 (stereo unspecified) | inactive: 0.344%
68 | O=C(/C=C/Nc1ccccc1O)c1ccco1 | inactive: -19.7%
69 | CCCN(CCC)c1nc(-c2ccccn2)nc2ccccc12 | inactive: 12.2%
70 | Cc1ccc(NC(=O)c2c(-c3ccccc3Cl)noc2C)nc1 | inactive: 11.1%
71 | COC(=O)C1CCN(CC(=O)NC(=O)NC2CCCCC2)CC1 | inactive: 5.77%
72 | CN(Cc1cnn(C)c1)C(=O)CC1C(=O)NCCN1Cc1cccc(Oc2ccccc2)c1 (stereo unspecified) | inactive: -5.36%
73 | Cc1cc(C)n(CCNc2nc3nonc3nc2N2CCCCC2)n1 | inactive: -1.56%
74 | CCn1c(SCC(=O)N/N=C/c2ccc(C)o2)nnc1-c1ccc(C(C)(C)C)cc1 | inactive: -4.54%
75 | COCCNC(=O)C1CCCN(C(=O)c2cncc(Br)c2)CC1 (stereo unspecified) | inactive: -5.58%
76 | NC(=O)Cn1c(=O)n(CCCCCC(=O)NCc2ccc3c(c2)OCO3)c(=O)c2sccc21 | inactive: 2.13%
77 | O=S(=O)(Nc1nc2ccccc2nc1-[n+]1ccccc1)c1ccc(Cl)cc1 | inactive: 10.8%
78 | COc1cc(CN2CCN(Cc3ccc(C)cc3)CC2)c([N+](=O)[O-])cc1OC | inactive: -5.42%
79 | COc1ccc2nc(SCC(=O)Nc3ccccc3C#N)[nH]c2c1 | inactive: -0.313%
80 | CSCCC(NC(N)=O)C(=O)Nc1cccc(C#N)c1 (stereo unspecified) | inactive: -0.217%
81 | CS(=O)(=O)N(CC(=O)NCCSCc1c(F)cccc1Cl)c1ccc2c(c1)OCO2 | inactive: 19.8%
82 | Cc1cc(NS(=O)(=O)c2ccc(NC(=O)Nc3cccc(C(F)(F)F)c3)cc2)no1 | inactive: -5.91%
83 | CCOC(=O)Cc1ccc(NC(=O)c2ccc([N+](=O)[O-])cc2)cc1 | inactive: 5.99%
84 | COCCNc1nc(NCCN2CCNC2=O)c2sc(-c3ccccc3)cc2n1 | inactive: 0.347%
85 | Cc1ccccc1/C=N/NC(=O)CSc1nc2ccccc2o1 | inactive: 9.53%
86 | COc1ccccc1/C=C1\SC(=S)N(CCC(=O)Nc2ccc(C(=O)O)c(O)c2)C1=O | inactive: 7.33%
87 | c1ccc(-n2c(SCC3CCCCO3)nnc2-c2cnccn2)cc1 (stereo unspecified) | inactive: 1.22%
88 | Cc1ccccc1C(=O)Nc1nnc(-c2ccco2)s1 | inactive: 7.24%

Row | SMILES | growth rescue (activation)
89 | CCc1cccc(NC(=O)C2CCN(S(=O)(=O)c3c(C)noc3C)CC2)c1 | inactive: 9.01%
90 | O=C(NC1CCCC1)c1cc(-c2ccc(F)cc2)on1 | inactive: 30.4%
91 | CSc1ccc(C(O)c2ncc(-c3cccc(F)c3)[nH]2)cc1 (stereo unspecified) | inactive: 7.99%
92 | CC(C)C(C)NC(=O)CN1C(=O)NC(c2ccccc2)(c2ccccc2)C1=O (stereo unspecified) | inactive: 6.91%
93 | O=C(Nc1ccc(Cl)c(Cl)c1)Nc1cc(S(=O)(=O)N2CCOCC2)ccc1N1CCCC1 | inactive: -21.1%
94 | CCOC(=O)N/N=C(/C)c1ccc(N2C(=O)C3CCCCC3C2=O)cc1 (stereo unspecified) | inactive: 10.3%
95 | O=C(CNC1CCCCCC1)c1cccs1 | inactive: 1.94%
96 | CCOC(CNC(=O)Cn1nc(Cc2ccncc2)c2ccccc2c1=O)OCC | inactive: 3.63%
97 | O=C1CC(=O)N(c2cccc(F)c2)N1 | inactive: -17.3%
98 | CC(=O)N1CCN(c2ccc(NC(=O)c3cccc(Cl)c3)cc2)CC1 | inactive: -3.93%
99 | COc1c(C)cc(C(=O)C2CCCN(C(=O)/C=C/c3ccccn3)C2)cc1C (stereo unspecified) | inactive: 12.1%
100 | CCN1CCN(C(=O)C2CCCN(S(=O)(=O)c3cc(Cl)ccc3Cl)C2)CC1 (stereo unspecified) | inactive: 0.019%
101 | CCC(C)NC(=O)C(NS(=O)(=O)c1cccc2nsnc12)c1ccccc1 (stereo unspecified) | inactive: 14.5%
102 | CN1CCN(C2CCN(S(=O)(=O)c3ccc(C(C)(C)C)cc3)CC2)CC1 | inactive: 12.2%
103 | O=C(COC(=O)/C=C/c1ccccc1[N+](=O)[O-])NCC(F)(F)F | inactive: -3.52%
104 | COc1ccc(Nc2ccc(OC)cc2)cc1 | inactive: 10.8%
105 | CCOC(=O)c1cc2c(ccn2C)n1Cc1ccc(Cl)cc1 | inactive: 9.49%
106 | CCC(C)Oc1ccc(/C=C/c2[nH]c(=O)[nH]c(=O)c2[N+](=O)[O-])cc1OC (stereo unspecified) | inactive: -15%

From PubChem BioAssay AID1347073 (National Center for Advancing Translational Sciences (NCATS), 2019)
